Source: PubChem BioAssay (NCI)
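Interpolation was linear, between the two tested concentrations surrounding the appropriate level; five concentrations were tested over 48 hours in 96-well plates. Here, GI50 denotes the concentration required for 50% inhibition of growth. Definition used: TGI = concentration required for complete inhibition of growth.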

system: NCI-H322M lung; assay: NCI tumour cell line growth inhibition, 48 h

**Q.** How did the TGI turn out when `CCCCCCCCCCCC1=C(O)C(=O)C=C(O)C1=O` was run?
**A.** 29.6 µM

**Q.** How did the TGI turn out when `CCOC(=O)NC/C=C/CO` was run?
**A.** > 100 µM

**Q.** For `CC(=O)OC1CCC2(C)C(=CCC3C4CC(CN5CC5)C(=O)C4(C)CCC32)C1` (centres undefined), which GI50 is on record?
**A.** 13.9 µM

**Q.** And the TGI?
**A.** 27 µM

**Q.** `COc1ccc(NC(=S)Nc2cccc(C)n2)cc1` was tested. Which TGI did it give?
**A.** > 100 µM

**Q.** `CC(=O)OC/C=C/Cn1nc(Br)c(=O)[nH]c1=O` was tested. Which TGI did it give?
**A.** > 100 µM

**Q.** How did the TGI turn out when `COc1ccc(-c2cc(=O)c3cc(OC)c(OC)cc3[nH]2)cc1OC` was run?
**A.** > 100 µM

**Q.** How did the TGI turn out when `Cc1cccc2c1Oc1ncccc1C2NC(=O)CN(C)C` (centres undefined) was run?
**A.** > 10 µM

**Q.** How did the TGI turn out when `CNc1nc(OC)c2c(n1)[n+](C)cn2C` was run?
**A.** > 100 µM

**Q.** For `Cn1c(=O)c2c(n(C)c1=O)n1c(=O)c3ccccc3nc1n2C`, which TGI is on record?
**A.** > 100 µM

**Q.** With `O=C(Nc1cccc(C(F)(F)F)c1)Nc1ccc(OCc2nnc(-c3ccccc3)o2)c(F)c1` as the compound, how does the GI50 read?
**A.** 9.1 µM

**Q.** And the TGI?
**A.** 57.4 µM

**Q.** Which results are given for `N#Cc1c(N/N=C/c2c(Cl)cccc2Cl)nc(N)nc1N1CCCC1`?
**A.** GI50: 8.18 µM; TGI: > 100 µM

**Q.** For `Oc1[nH]c2ccccc2c1N=Nc1nc(-c2ccccc2)cs1`, which TGI is on record?
**A.** > 100 µM

**Q.** How did the TGI turn out when `CC(=O)Nc1ccc(C(=O)NN2C(=O)CSC2c2ccccc2)cc1` (centres undefined) was run?
**A.** > 100 µM

**Q.** Which TGI does the source give for `CCCCCCCCCCCCCCCC(=O)OCC(COP(=O)(O)OCCNC(=O)CCSSc1ccccn1)OC(=O)CCCCCCCCCCCCCCC` (centres undefined) here?
**A.** > 100 µM

**Q.** How did the TGI turn out when `N/N=C(\N)SCc1ccc(N=C=S)cc1` was run?
**A.** > 100 µM

**Q.** With `CC(C)=C[C@@H]1C[C@H](C)[C@H]2CC[C@H](C)[C@H]3C(=O)C(O)=C(C)C(=O)[C@]123` as the compound, how does the TGI read?
**A.** > 100 µM

**Q.** `COc1ccc2c(C=O)c3n(c(=O)c2c1OC)CCc1cc2c(cc1-3)OCO2` was tested. Which TGI did it give?
**A.** > 100 µM

**Q.** `CC(C)(C)OC(=O)NCCCCC1NC(=O)[C@@H]2Cc3c([nH]c4ccccc34)C(c3ccccc3)N2C1=O` (some centres undefined) was tested. Which TGI did it give?
**A.** > 100 µM

**Q.** Which results are given for `Nc1ccc(N)c2c1C(=O)c1cccc([N+](=O)[O-])c1C2=O`?
**A.** GI50: 0.622 µM; TGI: 6.61 µM

**Q.** Which TGI does the source give for `CC(=O)OC1C(C)OC(OC2C[C@](O)(C(C)=O)Cc3c(O)c4c(c(O)c32)C(=O)c2ccccc2C4=O)C(F)C1OC(C)=O` (some centres undefined) here?
**A.** 13.2 µM

**Q.** With `Nc1cc(O)c2cc(N=Nc3ccc(N=Nc4ccc(N=Nc5ccc6cc(S(=O)(=O)O)cc(S(=O)(=O)O)c6c5)c5ccccc45)c4cc(S(=O)(=O)O)ccc34)c(S(=O)(=O)O)cc2c1` as the compound, how does the TGI read?
**A.** > 100 µM

**Q.** For `CCNc1nc(-c2ccc(Cl)c(OC)c2)c(-c2ccnc(NCCNS(=O)(=O)c3ccc(Cl)cc3)n2)s1`, which GI50 is on record?
**A.** 5.23 µM

**Q.** What about the TGI of the same compound?
**A.** > 100 µM

**Q.** Which TGI does the source give for `CCOC(=O)C1C(=O)C(=O)N2CCc3c([nH]c4ccccc34)C12` (centres undefined) here?
**A.** > 100 µM

**Q.** With `COc1cc(O)c2c(=O)c(O)c(-c3ccc(O)c(O)c3)oc2c1` as the compound, how does the TGI read?
**A.** 43 µM

**Q.** How did the TGI turn out when `CCOC(=O)c1sc2nc(SC)nc3c2c1NCN3c1ccccc1Cl` was run?
**A.** > 100 µM

**Q.** How did the TGI turn out when `COC(=O)c1ccccc1NCc1cc(O)ccc1O` was run?
**A.** > 100 µM

**Q.** Which TGI does the source give for `COc1ccc(-c2cc(-c3ccc(Nc4ccnc5cc(C(F)(F)F)ccc45)cc3)nc(N)c2C#N)c2ccccc12` here?
**A.** > 100 µM

**Q.** With `O=NNc1nc(-c2ccccn2)nc2ccccc12` as the compound, how does the TGI read?
**A.** > 100 µM

**Q.** Which results are given for `Cc1c(N)nc(C2CC(=O)N2CC(N)C(N)=O)nc1C(=O)NC(C(=O)NC(C)C(O)C(C)C(=O)NC(C(=O)NCCc1nc(-c2nc(C(=O)NCCNCC(C)O)cs2)cs1)C(C)O)C(OC1OC(CO)C(O)C(O)C1OC1OC(CO)C(O)C(OC(N)=O)C1O)c1cnc[nH]1` (centres undefined)?
**A.** GI50: > 50 µM; TGI: > 100 µM

**Q.** With `CCn1c(SC)nnc1-c1cc2c([nH]c3ccccc32)c(-c2cccc(O)c2)n1` as the compound, how does the GI50 read?
**A.** 4.42 µM

**Q.** What about the TGI of the same compound?
**A.** 44.7 µM

**Q.** Which TGI does the source give for `CCNC(=O)O/N=C1/C=C2CC[C@@H]3C(CC[C@@]4(C)C3CC[C@@H]4OC(=O)NCC)[C@@]2(C)CC1` (some centres undefined) here?
**A.** 15.1 µM

**Q.** Which TGI does the source give for `FC(F)(Sc1nc2ccccc2[nH]1)c1nc2ccccc2o1` here?
**A.** > 100 µM

**Q.** With `O=CC12CCCN1CCC2` as the compound, how does the TGI read?
**A.** > 100 µM

**Q.** With `CCOC(=O)C1(NC(=O)OC(C)(C)C)CCc2[nH]oc(=O)c2C1` (centres undefined) as the compound, how does the TGI read?
**A.** > 100 µM

**Q.** With `C/C(=C\CNc1ncnc2c1ncn2CCC#N)CO` as the compound, how does the TGI read?
**A.** > 100 µM

**Q.** With `CCOC(=O)c1ccc(-c2cccs2)[nH]1` as the compound, how does the TGI read?
**A.** > 100 µM

**Q.** `Cc1ccc(S(=O)(=O)NCc2cccc([N+](=O)[O-])c2)cc1` was tested. Which TGI did it give?
**A.** > 100 µM

**Q.** For `CCOC(=O)Oc1ccc2[nH]c3c(C)cc(N)c(C)c3c2c1`, which TGI is on record?
**A.** > 100 µM

**Q.** `O=[N+]([O-])c1cccc2c1[nH]c1c(-c3ccccc3)nccc12` was tested. Which TGI did it give?
**A.** 6.99 µM

**Q.** With `CCOP(=O)(OCC)/C(C#N)=C(\C)c1ccco1` as the compound, how does the TGI read?
**A.** > 10 µM

**Q.** Which TGI does the source give for `COc1ccc(Sc2ccccc2[N+](=O)[O-])cc1` here?
**A.** > 100 µM

**Q.** `CCOC(=O)C(NC(=O)c1cccc(Cl)c1)(N1CCN(c2cc3c(cc2F)c(=O)c(C(=O)O)cn3CC)CC1)C(F)(F)F` (centres undefined) was tested. Which TGI did it give?
**A.** 86 µM
